Measurements taken from patent US9340551B2, “Inhibitors of bacterial type III secretion system” (MICROBIOTIX, INC., priority 2011, dated 2016).

System: T3SS-mediated translocation (ExoU intoxication of CHO cells)
Assay: Inhibition of P. aeruginosa ExoU-dependent CHO cell killing (LDH release)
Conditions: FIG. 1; rescue of CHO cells from T3SS-mediated ExoU cytotoxicity

CCC(Oc1ccc(Cl)cc1Cl)C(=O)NCc1ccc2c(c1)OCO2 (stereo not shown) [MBX-2081]
increase in potency compared to MBX-1641: 3-4 fold
